The text below walks through data of PubChem BioAssay AID1159614 (National Center for Advancing Translational Sciences (NCATS), 2016).

The structures appear in SMILES notation. In all, about 45,000 compounds went through this assay and about 65 (0.1%) were called active. Calls come from the whole dose curve; as a rule, active = well fitted activation curve with a large enough effect; inconclusive = small, poorly fitted or top-dose-only effect; inactive = no such curve, though single readings can be large or run the other way. Some of the results follow.

Chain of UniProt P54803 (P54803 whole entry, looked up): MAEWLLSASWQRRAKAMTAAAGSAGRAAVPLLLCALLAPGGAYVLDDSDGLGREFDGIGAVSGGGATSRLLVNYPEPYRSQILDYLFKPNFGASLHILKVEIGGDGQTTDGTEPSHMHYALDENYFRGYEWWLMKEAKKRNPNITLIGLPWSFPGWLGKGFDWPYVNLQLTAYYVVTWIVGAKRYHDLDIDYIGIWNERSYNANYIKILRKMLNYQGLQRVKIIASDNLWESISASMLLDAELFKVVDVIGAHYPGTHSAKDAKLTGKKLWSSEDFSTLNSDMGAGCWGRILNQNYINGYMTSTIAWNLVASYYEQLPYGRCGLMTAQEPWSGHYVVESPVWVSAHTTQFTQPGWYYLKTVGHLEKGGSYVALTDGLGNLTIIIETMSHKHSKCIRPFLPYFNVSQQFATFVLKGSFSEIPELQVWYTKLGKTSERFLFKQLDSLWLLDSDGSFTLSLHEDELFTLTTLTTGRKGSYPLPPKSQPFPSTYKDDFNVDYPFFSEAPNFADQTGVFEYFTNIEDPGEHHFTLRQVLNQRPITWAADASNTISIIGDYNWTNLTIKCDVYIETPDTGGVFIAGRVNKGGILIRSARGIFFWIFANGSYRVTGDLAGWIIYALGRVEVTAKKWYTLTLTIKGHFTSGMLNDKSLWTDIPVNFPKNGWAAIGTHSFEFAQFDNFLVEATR

The assay has as its target Galactocerebrosidase (Homo sapiens) (UniProt P54803). Put plainly: A Novel Cell-Based Assay to Identify Small Molecules for B -Galactocerebrosidase. Note: 0% is about no effect; nearly all actives have a fitted effect of over 65% in size. Particulars: 145M-Twi-hGALC-G270D cells (Twitcher mouse brain line with human GALC G270D), HMU-beta-Gal fluorescence, 48 h; series mostly up to 57.5 µM; activation: at the top concentration. A digest of the protocol:
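Fluorescence readout: HMU-β-gal cleavage by mutant GALC (0.1 mM final, citrate/phosphate pH 5.2 with 1 mg/mL taurocholate), stopped with carbonate/bicarbonate plus Triton X-100. Cells: murine Twitcher 145M-Twi expressing human G270D GALC; qHTS for activators.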
On to `CCCN(CCC)C(=O)CN1C(=O)CSc2ccc(S(=O)(=O)N3CCC(C)CC3)cc21`, for which the “activation” value was inactive: -16.4%. As for `CCN(CC)S(=O)(=O)c1ccc2c(c1)nc(CN(C)C(=O)Nc1cccc(Cl)c1)n2C`, the figure is inactive: -15.2%. With `COc1cccc(C(=O)c2cn(CC(=O)Nc3cccc(C(F)(F)F)c3)c3nc(C)ccc3c2=O)c1` the figure was inactive: -8.93%. For the compound `CC1C(=O)Nc2ccc(S(=O)(=O)NCc3ccc(N(C)C)cc3)cc2NC1=O` (centres undefined), the “activation” value is inactive: 7.78%. `COc1ccc(OCCn2c(C(C)Oc3ccccc3)nc3ccccc32)cc1` (centres undefined): the “activation” value was inactive: -16.3%. As for `Cc1ccc(Cl)cc1-n1ncc2c(NCc3ccc(F)cc3)ncnc21`, the figure is inactive: -10.1%; as for `COc1ccc(-c2cccc(NS(=O)(=O)c3ccc(C)s3)c2)nn1`, inactive: -11.7%.

Regarding `COCCCNC(=O)c1oc2c(c1C)-c1nn(Cc3ccc(Cl)cc3)cc1CC2`, the “activation” value is inactive: -48.2%. With `Cc1cc(C)cc(NS(=O)(=O)c2ccc(-n3cccn3)cc2)c1` the figure was inactive: 0.0557%. On to `Cn1cc(CCC(=O)NCc2ccc(Cl)cc2)c2ccccc21`, for which the “activation” value was inactive: 0.757%. Turning to `CC1CCC(Nc2ncnc3onc(-c4ccc(F)cc4)c23)CC1` (centres undefined), the “activation” value is inactive: -8.5%.

`O=C(O)c1c(-c2ccccc2)oc2ccc(OCc3ccc(Cl)c(Cl)c3)cc12`: the “activation” value is inactive: -16.9%.

In the case of `CCOc1cc(CNc2ccc(C(=O)O)cc2)ccc1OCc1ccccc1`, the “activation” value was inactive: -3.36%. Turning to `Cn1c(=O)n(C)c2cc(N3CCOCC3)c(NS(=O)(=O)c3ccc(C(C)(C)C)cc3)cc21`, the “activation” value is inactive: -9.75%. On to `CCc1ccc(CNCc2c(C(=O)O)c(C)n(Cc3c(F)cccc3Cl)c2C)cc1`, for which the “activation” value was inactive: -13.8%. As for `Cc1ccccc1CC1C(=O)Nc2ccc(Br)cc21` (centres undefined), the “activation” value is inactive: -9.97%. For `CCOc1cccc(C(=O)N(Cc2ccc(N(C)C)cc2)CC2CCCO2)c1` (centres undefined), the “activation” value is inactive: -9.26%. As for `COc1cccc(-n2c(=O)c3c(C)c(C)sc3n(CC(=O)Nc3ccccc3OC)c2=O)c1`, the “activation” value was inactive: -8.03%. Turning to `Nc1nc(SCC(=O)Nc2cccc(C(F)(F)F)c2)n[nH]1`, the “activation” value was inactive: -10.5%.

As to `CCOC(=O)c1c(-c2ccc(C)cc2)csc1NC(=O)c1cc(-c2ccc(Cl)cc2)on1`, the “activation” value is inactive: 0.0078%.

For the compound `CCc1ccccc1NC(=O)N1CCC(CN2CCc3ccccc3C2)CC1`, the “activation” value was inactive: -10.2%. Regarding `Cc1ccc(C(=O)CCC(=O)Nc2ccc(C)cc2C)cc1`, the “activation” value was inactive: -4.54%. As for `CCOc1ccc(N(C(=O)c2ccccc2F)S(=O)(=O)c2ccc3c(c2)n(C)c(=O)n3C)cc1`, the “activation” value was inactive: -8.67%.

`CC1CCN(S(=O)(=O)c2ccc3c(ccc(=O)n3CC(=O)Nc3ccc(C(C)C)cc3)c2)CC1`: the “activation” value is inactive: -22%. On to `CNC(=O)Cn1nc(-c2ccc(Cl)cc2)c2ccccc2c1=O`, for which the “activation” value was inactive: -12%. On to `COc1ccc(-c2nc(CCNC(=O)c3cccs3)cs2)cc1`, for which the “activation” value is inactive: -10.5%. `CS(=O)(=O)N(CC(=O)Nc1ccc(Br)cc1)c1ccccc1Br`: the “activation” value was inactive: -26.4%. As for `COc1cccc(N2CCN(C(=O)C3CCN(S(=O)(=O)c4cccc5nonc45)CC3)CC2)c1`, the “activation” value is inactive: 4.33%. `Cc1nn(C)c2c1c(-c1ccccc1)cc(=O)n2Cc1ccccc1Cl`: the “activation” value was inactive: -6.34%. `Cc1cc(NC(=O)CCNS(=O)(=O)c2ccc3c(c2)CCCC(=O)N3)ccc1Br`: the “activation” value is inactive: -43.6%.

As for `Cc1ccc(CN(C(=O)COc2ccc(Cl)cc2)c2ccccn2)o1`, the “activation” value is inactive: 2.98%.

Regarding `CCCCC(CC)CNC(=O)CN(C)S(=O)(=O)c1ccc2c(c1)c(=O)n(C)c(=O)n2C` (centres undefined), the “activation” value is inactive: -0.0471%. Consider `COc1ccc(NC(=O)CSC2=Nc3ccccc3C3=NC(CCC(=O)NCc4ccc(F)cc4)C(=O)N23)cc1Cl` (centres undefined), for which the “activation” value is inactive: -17.7%. As to `CCOC(=O)c1ccc(NC(=O)CC2Sc3ccc(C(F)(F)F)cc3NC2=O)cc1` (centres undefined), the “activation” value was inactive: -12.4%.

For the compound `COc1ccc(S(=O)(=O)Nc2ccc3oc4c(c3c2)C(=O)CC(C)(C)C4)cc1`, the “activation” value was inactive: -14.5%. Consider `CCCCN(C)C(=O)Cn1c(C2CC(=O)N(c3ccc(C)cc3)C2)nc2ccccc21` (centres undefined), for which the “activation” value is inactive: -21.3%.

`COc1cccc(C(=O)Nc2cccc(NC(=O)c3ccc(Cl)cc3Cl)c2)c1`: the “activation” value was inactive: -14%. Consider `CCOc1ccccc1NC(=O)c1c(NCc2ccc(C)o2)sc2c1CCC(C)C2` (centres undefined), for which the “activation” value was inactive: -6.17%. As for `CCCOc1ccc(-c2nn(-c3ccccc3)cc2C2NC(=O)NC(C)=C2C(=O)OC)cc1` (centres undefined), the figure is inactive: -37.8%. Regarding `CCc1ccc(C(=O)c2cn(CC(=O)Nc3cc(OC)ccc3OC)c3ccc(C)cc3c2=O)cc1`, the “activation” value was inactive: -4.96%. On to `Cc1cccc(NS(=O)(=O)c2ccc3c(c2)[C@H]2C=CC[C@H]2[C@@H](c2ccc(F)cc2)N3)c1`, for which the “activation” value is inactive: -12.3%. Turning to `Cc1ccc(C)c(NC(=O)Cn2c(=O)nc(-c3ccccc3)c3ccccc32)c1`, the “activation” value was inactive: -8.65%.

Consider `CCOc1ccc(CNC(=O)CCCn2nc(C)c3sc4ccccc4c3c2=O)cc1`, for which the “activation” value is inactive: -17.4%.

With `CCC(C)Nc1sc(S(=O)(=O)CC)nc1S(=O)(=O)c1ccc(C)cc1` (centres undefined), the “activation” value is inactive: -10.5%. For the compound `COC(=O)c1cc(S(=O)(=O)NCC2CCN(Cc3ccc(C)cc3)CC2)cn1C`, the “activation” value was inactive: -12.2%. `O=C(CCS(=O)(=O)c1cc2c(cc1Cl)NC(=O)CO2)NCCc1ccc(Cl)cc1`: the “activation” value is inactive: -9.85%. As to `CCCCN(C)C(=O)C1CCC(CNS(=O)(=O)c2ccc3c(c2)CC(C)N3C(C)=O)CC1` (centres undefined), the “activation” value is inactive: -3.31%. For the compound `COc1ccc(NC(=O)CSc2nc(-c3ccco3)cc(C(F)(F)F)n2)c(OC)c1`, the “activation” value is inactive: -2.74%.

As for `CCN(CC)C(=O)Cn1c(SCCOc2ccc(Cl)cc2)nc2ccccc21`, the “activation” value was inactive: -26.3%.
